Legend:
Details in all cases: Electrophorus electricus
[1] = test system: O=C(CN1C(=O)c2ccccc2C1=O)N1CCN(c2ccncc2)CC1; assay: Binding affinity to electric eel AChE assessed as maximum velocity using acetylcholine iodide as a substrate at 4 uM incubated for 10 mins by Lineweaver-Burk plot analysis
[2] = test system: O=C(CN1C(=O)c2ccccc2C1=O)N1CCN(c2ccncc2)CC1; assay: Binding affinity to electric eel AChE assessed as maximum velocity using acetylcholine iodide as a substrate at 2 uM incubated for 10 mins by Lineweaver-Burk plot analysis
[3] = test system: O=C(CN1C(=O)c2ccccc2C1=O)N1CCN(c2ccncc2)CC1; assay: Binding affinity to electric eel AChE assessed as Km using acetylcholine iodide as a substrate at 4 uM incubated for 10 mins by Lineweaver-Burk plot analysis
[4] = test system: O=C(CN1C(=O)c2ccccc2C1=O)N1CCN(c2ccncc2)CC1; assay: Binding affinity to electric eel AChE assessed as Km using acetylcholine iodide as a substrate at 2 uM incubated for 10 mins by Lineweaver-Burk plot analysis

Substance: Acetylcholinesterase (Electrophorus electricus) (no sequence given)
- Vmax [1]: 7.3 µM/min
- Vmax [2]: 8.37 µM/min
- Km [3]: 254 µM
- Km [4]: 156 µM
